The inconclusive results got no clear call from the source; some entries with a clear call stand among them for comparison. No potency is given beside an inconclusive call; the fits are too rough. Calls of active or inactive are those of the source. Calls come from the whole dose curve; as a rule, active = well fitted cell-killing curve with a large enough effect in the repeat runs; inconclusive = weak or mixed curves, or effect the other way; inactive = flat fitted curve, though single readings scatter.
test: qHTS assay to identify small molecule that activate the aryl hydrocarbon receptor (AhR) signaling pathway - cell viability counter screen (AID 743086); settings: HepG2-AhR-luc viability, CellTiter-Fluor, 24 h; series mostly up to 70.3 µM; viability change, negative = cytotoxic: at the top concentration; note: nearly all actives have a fitted effect of over 45% in size;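 for viability change, negative = cytotoxic: HepG2 liver cells carrying the AhR DRE luciferase reporter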
Description: U.S. Tox21 Program National Center for Advancing Translational Sciences [NCATS] NIH Chemical Genomics Center [NCGC] U.S. Environmental Protection Agency [EPA] National Institutes of Environmental Health Sciences [NIEHS] National Toxicology Program [NTP] U.S. Food and Drug Administration [FDA] Tox21 Assay overview: The Aryl hydrocarbon Receptor (AhR), a member of the family of basic helix-loop-helix transcription factors, is crucial to adaptive responses to environmental changes. AhR mediates cellular responses to environmental pollutants such as aromatic hydrocarbons through induction of phase I and II enzymes but also interacts with other nuclear receptor signaling pathways A cell based HepG2-AhR-luc assay (HG2L7.5c1 cell line, developed by Dr. Michael S. Denison, University of California at Davis) was used to assess the activation of AhR. HepG2 (human hepatocellular carcinoma) cells were stably transfected with an Ah receptor-responsive firefly luciferase reporter gene plasmid containing 20 dioxin responsive elements and luciferase reporter gene. Increased luciferase activity can be used to identify the compounds that induce AhR activation. The cytotoxicity of the compounds screened against the HepG2-AhR-luc cell line was tested in parallel by measuring the cell viability using CellTiter-Fluor assay in the same wells.
Tox21 Assay Protocol Summary: 4000 cells in 5 uL/well were dispensed into white wall/solid bottom 1536-well plates using a Multidrop Combi (Thermo Fisher Scientific Inc., Waltham, MA) dispenser. After the assay plates were incubated at 37C for 5 h, 23 nL of compound or DMSO vehicle was transferred to the assay plates by a pintool station (Kalypsys, San Diego, CA). The plates were incubated at 37C for 24 hr. For cell viability measurement, 1 ul/well of CellTiter-Fluor reagent (Promega, Madison, WI) was added into the assay plates using a Flying Reagent Dispenser (FRD) (Aurora Discovery, CA),and then the assay plates were incubated at 37C for 30 min. The fluorescence intensity in the plates was measured using a ViewLux plate reader (PerkinElmer, Shelton, CT), followed by the addition of 4 uL of ONE-Glo Luciferase Assay reagent (Promega) using an FRD (Aurora Discovery). After the assay plates were incubated at room temperature for 30 min, luminescence intensity was measured using a ViewLux plate reader (Perkin Elmer).
% is set by controls: 0 for no effect and ±100 for the full control effect; potency is the fitted concentration of half-maximal effect; tags give direction and shape of the fitted curve.

Compound | Potency | viability change, negative = cytotoxic
O=C(O)Cc1c[nH]c2ccccc12 | inactive | 
c1cc(CN2CCCCC2)cc(OCCCNc2nc3ccccc3s2)c1 | inconclusive [falling, single point] | 
COc1cc2nc(N3CCN(C(=O)C4CCCO4)CC3)nc(N)c2cc1OC (stereo not given) |  | inactive: -2.52%
COC(=O)Cc1cccc2ccccc12 | inconclusive [rising, partial curve, poor fit] | 
COC(=O)c1ccc(C)cc1C1=NC(C)(C(C)C)C(=O)N1 (stereo not given) | inconclusive [falling, partial curve, poor fit] | 
CCC(CO)CO | inconclusive [rising, partial curve, poor fit] | 
C[N+]1(CC2COC(c3ccccc3)(c3ccccc3)O2)CCCCC1 (stereo not given) |  | inactive: 7.4%
CCc1cc(C2=C(C(=O)O)N(c3ccccc3C(F)(F)F)S(=O)(=O)c3ccccc32)cc2c1OCO2 | active: 21.4 µM | 
CC(C)(C)NCC(O)COc1ccc(NC(=O)NC2CCCCC2)cc1 (stereo not given) | inconclusive [falling, partial curve, poor fit] | 
COc1cc2c(Nc3ccc(Br)cc3F)ncnc2cc1OCC1CCN(C)CC1 | inconclusive [falling, full curve] | 
Cn1c(=O)c2[nH]cnc2n(C)c1=O | inconclusive [rising, partial curve, poor fit] | 
Cc1ncc([N+](=O)[O-])n1C | inactive | 
CCCOc1ccc(S(=O)(=O)N2CCN(CC)CC2)cc1-c1nc2c(CC)n(Cc3ccccn3)nc2c(=O)[nH]1 | inconclusive [falling, partial curve, poor fit] | 
CCc1cccc(N(C)C(N)=Nc2cccc3ccccc23)c1 | inconclusive [falling, single point] | 
CN(C)CCOC(c1ccccc1)c1ccccc1 | inconclusive [falling, partial curve] | 
Oc1ccc(C(O)CNCCCCCCNCC(O)c2ccc(O)c(O)c2)cc1O (stereo not given) | inconclusive [falling, single point] | 
C[C@H]1O[C@H](O[C@H]2[C@H](O)[C@@H](O)[C@@H](O[C@H]3[C@H](O)[C@@H](O)[C@H](O)O[C@@H]3CO)O[C@@H]2CO)[C@H](O)[C@@H](O)[C@@H]1N[C@H]1C=C(CO)[C@@H](O)[C@H](O)[C@H]1O |  | inactive: -1.22%
CCO[C@H](Cc1ccc(OCCc2ccc(OS(C)(=O)=O)cc2)cc1)C(=O)O | inconclusive [rising, partial curve, poor fit] | 
Cc1cccnc1 | inactive | 
N#C/C(=C1/SC[C@@H](c2ccc(Cl)cc2Cl)S1)n1ccnc1 | inconclusive [falling, single point] | 

Compound | Potency | viability change, negative = cytotoxic
O=C(O)c1ccc(O)c(O)c1 |  | inactive: 10.7%
C#Cc1cccc(Nc2ncnc3cc(OCCOC)c(OCCOC)cc23)c1 | inconclusive [falling, partial curve] | 
COC(=O)N[C@H](C(=O)N[C@@H](Cc1ccccc1)[C@@H](O)CN(Cc1ccc(-c2ccccn2)cc1)NC(=O)[C@@H](NC(=O)OC)C(C)(C)C)C(C)(C)C | inconclusive [falling, partial curve] | 
Cc1ccc(C(C)C)cc1 | inactive | 
C=COCCOCCOCCOC=C |  | inactive: 5.39%
CCCCCCCCOCCCN |  | inactive: -4.78%
Cc1c(C)n(CCN(C)C)c2ccc(C(=O)OCCN(C)C)cc12 | inconclusive [falling, partial curve] | 
COS(C)(=O)=O | inactive | 
CCC(C)C(C)=O (stereo not given) |  | inactive: 13%
C=CC(=O)OCCC(=O)O | inactive | 
CCOC(=O)COc1ccc2c(c1)CC(NCC(O)c1cccc(Cl)c1)CC2 (stereo not given) | inconclusive [falling, single point] | 
C=CCOc1c(Br)cc(Br)cc1Br |  | inactive: 8.24%
CCOc1ccc(N=Nc2ccc(/C=C/c3ccc(N=Nc4ccc(OCC)cc4)cc3S(=O)(=O)O)c(S(=O)(=O)O)c2)cc1 | active: 19 µM | 
COc1cc([N+](=O)[O-])ccc1N | inconclusive [falling, partial curve] | 
C=CC(C)(O)CC/C=C(\C)CCC=C(C)C (stereo not given) | inactive | 
CCC(C)O (stereo not given) |  | inactive: -0.449% [at 95 µM]
O=[N+]([O-])c1cc[n+]([O-])cc1 | inconclusive [falling, single point] | 
COCCCCCCCCOCCC[Si](C)(O[Si](C)(C)C)O[Si](C)(C)C | inconclusive [falling, partial curve, poor fit] | 
CC(C)(C)c1ccc(OC(=O)c2ccccc2O)cc1 |  | inactive: 3.84%
CCCSc1ccc2nc(NC(=O)OC)[nH]c2c1 | inactive | 

Source: PubChem BioAssay (Tox21)
